Screen size: about 310,000 compounds; about 2,200 (0.71%) showed an effect of 50% or more. The effect is printed as a negative number. The list shows a part of the results.
molecular target: human ether-à-go-go-related gene (hERG) potassium channel (human, UniProt Q12809); experiment: primary screen, population patch clamp on CHO cells stably expressing hERG
Sequence (Q12809 whole entry, looked up): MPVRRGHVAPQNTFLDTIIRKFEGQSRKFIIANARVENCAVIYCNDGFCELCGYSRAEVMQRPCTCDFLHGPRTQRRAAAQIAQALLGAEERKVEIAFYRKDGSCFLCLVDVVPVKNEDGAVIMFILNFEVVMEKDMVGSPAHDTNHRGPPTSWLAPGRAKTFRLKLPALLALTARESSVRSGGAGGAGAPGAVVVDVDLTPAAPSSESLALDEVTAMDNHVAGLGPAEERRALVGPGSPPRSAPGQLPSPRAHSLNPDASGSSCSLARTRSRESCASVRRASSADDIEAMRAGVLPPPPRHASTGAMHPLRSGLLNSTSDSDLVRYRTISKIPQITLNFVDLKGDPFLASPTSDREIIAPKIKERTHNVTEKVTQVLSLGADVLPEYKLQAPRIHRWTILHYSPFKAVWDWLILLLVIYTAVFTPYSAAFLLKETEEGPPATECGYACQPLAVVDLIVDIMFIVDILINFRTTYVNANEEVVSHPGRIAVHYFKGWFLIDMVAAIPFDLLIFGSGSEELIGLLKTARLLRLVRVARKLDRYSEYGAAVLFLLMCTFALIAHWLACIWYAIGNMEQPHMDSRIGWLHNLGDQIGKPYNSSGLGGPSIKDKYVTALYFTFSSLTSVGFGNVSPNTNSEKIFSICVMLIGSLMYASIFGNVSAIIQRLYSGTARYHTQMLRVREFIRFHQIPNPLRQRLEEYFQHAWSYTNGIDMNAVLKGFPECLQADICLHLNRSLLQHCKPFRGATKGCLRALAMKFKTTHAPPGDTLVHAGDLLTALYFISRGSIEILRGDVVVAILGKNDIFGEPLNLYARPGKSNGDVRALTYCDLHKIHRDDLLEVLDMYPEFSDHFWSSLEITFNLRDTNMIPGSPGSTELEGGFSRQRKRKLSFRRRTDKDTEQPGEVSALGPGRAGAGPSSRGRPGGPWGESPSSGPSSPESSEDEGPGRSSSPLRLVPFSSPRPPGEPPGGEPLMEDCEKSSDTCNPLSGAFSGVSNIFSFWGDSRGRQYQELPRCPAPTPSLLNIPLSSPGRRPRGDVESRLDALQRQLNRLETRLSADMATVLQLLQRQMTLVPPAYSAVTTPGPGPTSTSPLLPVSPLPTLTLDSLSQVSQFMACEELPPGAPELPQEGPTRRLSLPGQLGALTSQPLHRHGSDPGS

**Q.** How did the “hERG current change (%, negative = inhibition) at 1uM” value turn out when `COc1ccc(CNC(=O)[C@H](C)NC(=O)C2CCN(C(=O)[C@@H](N)CCSC)CC2)cc1` was run?
**A.** 10.7%

**Q.** How did the “hERG current change (%, negative = inhibition) at 1uM” value turn out when `CCOC(=O)C1CCCN(C(=O)c2ccc3nc(-c4ccccc4)c(-c4ccccc4)nc3c2)C1` (stereo not drawn) was run?
**A.** 14.7%

**Q.** `Cc1cc(N(C)C)cc(C)[n+]1[O-]` was tested. Which “hERG current change (%, negative = inhibition) at 1uM” value did it give?
**A.** 11.7%

**Q.** `CCC(C)N(C(=O)Cn1nnc(-c2ccc(Cl)cc2)n1)C1CCS(=O)(=O)C1` (stereo not drawn) was tested. Which “hERG current change (%, negative = inhibition) at 1uM” value did it give?
**A.** 3.46%

**Q.** `CCc1ccc(NC(=O)CO/N=C(\C)c2cc3ccccc3o2)cc1` was tested. Which “hERG current change (%, negative = inhibition) at 1uM” value did it give?
**A.** 5.18%

**Q.** For `CC(=O)Nc1cccc2c1C(=O)N(c1cccc(C)c1)C2=O`, which “hERG current change (%, negative = inhibition) at 1uM” value is on record?
**A.** 15.6%

**Q.** With `N#CCCN(C(=O)COC(=O)c1ccc(S(=O)(=O)N2CCCC2)cc1)c1cccc(Cl)c1` as the compound, how does the “hERG current change (%, negative = inhibition) at 1uM” value read?
**A.** 12%

**Q.** With `CC1=Nc2cc(C(=O)NCCCOC(C)C)ccc2Sc2ccccc21` as the compound, how does the “hERG current change (%, negative = inhibition) at 1uM” value read?
**A.** 3.61%

**Q.** `CCCN=Cc1sc2ccc(OCC)cc2c1O` was tested. Which “hERG current change (%, negative = inhibition) at 1uM” value did it give?
**A.** 5.92%

**Q.** For `CCN(CC(=O)Nc1ccc(OC)cc1)CC(=O)Nc1ccc(Cl)cc1F`, which “hERG current change (%, negative = inhibition) at 1uM” value is on record?
**A.** -1.53%

**Q.** How did the “hERG current change (%, negative = inhibition) at 1uM” value turn out when `Cc1nnc(-n2ncc(C#N)c2N)c2nn(-c3cccc(Cl)c3)c(C)c12` was run?
**A.** -0.406%

**Q.** With `CN(c1ccc(OCC(=O)N2CCCC2)cc1)S(=O)(=O)c1ccc(Cl)cc1` as the compound, how does the “hERG current change (%, negative = inhibition) at 1uM” value read?
**A.** 0.957%

**Q.** `CCc1ccc(OCC2Cn3c(nc4c3c(=O)[nH]c(=O)n4C)O2)cc1` (stereo not drawn) was tested. Which “hERG current change (%, negative = inhibition) at 1uM” value did it give?
**A.** 13.5%

**Q.** How did the “hERG current change (%, negative = inhibition) at 1uM” value turn out when `O=C(NCCCN1CCOCC1)c1ccc(S(=O)(=O)N2CCOCC2)cc1` was run?
**A.** 1.48%

**Q.** How did the “hERG current change (%, negative = inhibition) at 1uM” value turn out when `Cn1ccc(NC(=O)Nc2ccc(Cl)cc2)n1` was run?
**A.** 19.2%

**Q.** `COCCOC(=O)C1=C(C)Nc2ncnn2C1c1ccc(F)cc1` (stereo not drawn) was tested. Which “hERG current change (%, negative = inhibition) at 1uM” value did it give?
**A.** 2.42%

**Q.** `Cc1cccc(NC(=O)COC(=O)c2ccc3c(c2)OCO3)c1C` was tested. Which “hERG current change (%, negative = inhibition) at 1uM” value did it give?
**A.** 8.73%

**Q.** With `CC(=O)N1CCc2cc(S(=O)(=O)CCC(=O)N(C)Cc3ccco3)ccc21` as the compound, how does the “hERG current change (%, negative = inhibition) at 1uM” value read?
**A.** 16.5%

**Q.** For `COc1cc(NC(=S)Nc2ncccc2C)cc(OC)c1OC`, which “hERG current change (%, negative = inhibition) at 1uM” value is on record?
**A.** 16%

**Q.** `O=C1C=C(c2ccc(F)cc2OCc2ccccc2)C[C@@H](c2ccc(F)cc2)C1` was tested. Which “hERG current change (%, negative = inhibition) at 1uM” value did it give?
**A.** 6.61%

**Q.** With `CCc1cc2c(CN3CCN(C)CC3)cc(=O)oc2cc1O` as the compound, how does the “hERG current change (%, negative = inhibition) at 1uM” value read?
**A.** 18.1%

**Q.** For `CC(=O)c1c(N2CCN(c3ccccc3)CC2)nc(=S)n(-c2ccccc2)c1C`, which “hERG current change (%, negative = inhibition) at 1uM” value is on record?
**A.** 2.93%

**Q.** `O=C(OCC(=O)N1N=C(c2ccc(Cl)cc2)CC1c1ccco1)c1ccccc1O` (stereo not drawn) was tested. Which “hERG current change (%, negative = inhibition) at 1uM” value did it give?
**A.** 17%

**Q.** How did the “hERG current change (%, negative = inhibition) at 1uM” value turn out when `COc1ccccc1CNC(=O)COC(=O)c1ncc(Cl)c(Cl)c1Cl` was run?
**A.** 8.89%

**Q.** With `CCN1CCN(C(=S)Nc2ccc([N+](=O)[O-])cc2)CC1` as the compound, how does the “hERG current change (%, negative = inhibition) at 1uM” value read?
**A.** -9.28%

**Q.** With `O=C(CN1C(=O)/C(=C/c2cccc(Br)c2)SC1=S)Nc1cccnc1` as the compound, how does the “hERG current change (%, negative = inhibition) at 1uM” value read?
**A.** 13.8%

**Q.** With `COc1ccc(OC(=O)c2cccc(S(=O)(=O)N3CC(C)OC(C)C3)c2)cc1` (stereo not drawn) as the compound, how does the “hERG current change (%, negative = inhibition) at 1uM” value read?
**A.** -1.04%

**Q.** `Cc1nn(CCC#N)c2[nH]c(=O)cc(C(F)(F)F)c12` was tested. Which “hERG current change (%, negative = inhibition) at 1uM” value did it give?
**A.** 11%

**Q.** With `O=C(Nc1ncc([N+](=O)[O-])s1)c1cccs1` as the compound, how does the “hERG current change (%, negative = inhibition) at 1uM” value read?
**A.** 20.4%

**Q.** For `O=C(NCCc1ccccc1F)c1ccc2c(c1)OCCO2`, which “hERG current change (%, negative = inhibition) at 1uM” value is on record?
**A.** 9.2%

**Q.** `CCOC(=O)[C@@H]1[C@H]2COc3cc(OC)ccc3[C@@H]2N2C(=O)N(c3ccc(Cl)cc3)C(=O)[C@]12C` was tested. Which “hERG current change (%, negative = inhibition) at 1uM” value did it give?
**A.** 6.49%

**Q.** How did the “hERG current change (%, negative = inhibition) at 1uM” value turn out when `CCc1ccc(CNC(=O)CCc2nnc(CCc3ccc(OC)cc3)o2)nc1` was run?
**A.** -17.9%

**Q.** For `CC1CCCC(NC(=O)COC(=O)COc2ccccc2Cl)C1C` (stereo not drawn), which “hERG current change (%, negative = inhibition) at 1uM” value is on record?
**A.** 11.8%

**Q.** `CCn1c(C)cs/c1=N\C(=S)Nc1ccccc1C` was tested. Which “hERG current change (%, negative = inhibition) at 1uM” value did it give?
**A.** 4.76%

**Q.** `CC1Cc2ccccc2N1Cc1nc2cc(Cl)ccc2c(=O)[nH]1` (stereo not drawn) was tested. Which “hERG current change (%, negative = inhibition) at 1uM” value did it give?
**A.** 11.7%

**Q.** For `CCOC(=O)[C@@H]1[C@H]2COc3ccc(Br)cc3[C@H]2N2C(=O)N(c3cccc(Cl)c3)C(=O)[C@]12C`, which “hERG current change (%, negative = inhibition) at 1uM” value is on record?
**A.** 4.01%

**Q.** For `CCOc1ccccc1C(=O)NC(C)c1ccc(-n2ccnc2)cc1` (stereo not drawn), which “hERG current change (%, negative = inhibition) at 1uM” value is on record?
**A.** -34.8%

**Q.** With `COc1ccccc1CCC(=O)Oc1ccccc1C#N` as the compound, how does the “hERG current change (%, negative = inhibition) at 1uM” value read?
**A.** 9.6%

**Q.** Which “hERG current change (%, negative = inhibition) at 1uM” value does the source give for `Cc1nc2ccc(Cl)cn2c1C(=O)NN` here?
**A.** 16.9%

**Q.** Which “hERG current change (%, negative = inhibition) at 1uM” value does the source give for `COc1ccc2[nH]c3c(=O)n(Cc4ccc(C(=O)N5CCCC5)cc4)c(=S)[nH]c3c2c1` here?
**A.** 6.75%

**Q.** How did the “hERG current change (%, negative = inhibition) at 1uM” value turn out when `CCOc1ccccc1CNC(=O)Cn1c(=O)oc2ccccc21` was run?
**A.** 9.38%

**Q.** With `COc1cccc(NC(=O)C2C3C=CC(C3)C2C(=O)O)c1` (stereo not drawn) as the compound, how does the “hERG current change (%, negative = inhibition) at 1uM” value read?
**A.** 5.29%

**Q.** With `O=C1/C(=C/c2cccs2)SC(=S)N1NS(=O)(=O)c1ccccc1` as the compound, how does the “hERG current change (%, negative = inhibition) at 1uM” value read?
**A.** -7.22%

**Q.** How did the “hERG current change (%, negative = inhibition) at 1uM” value turn out when `COc1ccccc1NC(=O)c1csc2c1CCCC2` was run?
**A.** 3.12%

**Q.** With `CCN(CC(=O)Nc1ccc2c(c1)OCCO2)CC(=O)Nc1ccc2c(c1)OCO2` as the compound, how does the “hERG current change (%, negative = inhibition) at 1uM” value read?
**A.** 17.5%

**Q.** With `COCc1[nH]nc2c1C1(C(=O)N(C)c3ccccc31)C(C#N)=C(N)O2` (stereo not drawn) as the compound, how does the “hERG current change (%, negative = inhibition) at 1uM” value read?
**A.** 7.41%

**Q.** For `O=C(OCC(=O)N(c1ccccc1)C1CCCCC1)c1ccc(CO)cc1`, which “hERG current change (%, negative = inhibition) at 1uM” value is on record?
**A.** 7.97%

**Q.** `COC(=O)C1=C(C)N=C2SCCC(=O)N2C1c1cccs1` (stereo not drawn) was tested. Which “hERG current change (%, negative = inhibition) at 1uM” value did it give?
**A.** 12.5%

**Q.** `COc1cccc(NC(=O)C(=S)NC2CCCCC2)c1` was tested. Which “hERG current change (%, negative = inhibition) at 1uM” value did it give?
**A.** 5.19%

**Q.** Which “hERG current change (%, negative = inhibition) at 1uM” value does the source give for `CC1CC(NC(=O)c2ncn[nH]2)CC(C)(C)C1` (stereo not drawn) here?
**A.** -0.213%

**Q.** With `CCS(=O)(=O)c1ccc2oc(SCC(=O)Nc3ccc(OC)cc3)nc2c1` as the compound, how does the “hERG current change (%, negative = inhibition) at 1uM” value read?
**A.** 8.25%

**Q.** `COC(=O)C1C(O)=C(C=NCC(C)N=CC2=C(O)C(C(=O)OC)C(C)(C)CC2=O)C(=O)CC1(C)C` (stereo not drawn) was tested. Which “hERG current change (%, negative = inhibition) at 1uM” value did it give?
**A.** 10.8%

**Q.** `COC(=O)c1ccc(C(=O)N2CCCC(N3CCN(c4ccc(F)cc4)CC3)C2)nc1` (stereo not drawn) was tested. Which “hERG current change (%, negative = inhibition) at 1uM” value did it give?
**A.** -35%

**Q.** `NCCc1c(Cc2ccccc2)[nH]c2ccccc12` was tested. Which “hERG current change (%, negative = inhibition) at 1uM” value did it give?
**A.** -6.52%

**Q.** For `N/C(=N\OC(=O)CCCCCN1C(=O)c2ccccc2C1=O)c1ccccc1`, which “hERG current change (%, negative = inhibition) at 1uM” value is on record?
**A.** 7.78%

**Q.** Which “hERG current change (%, negative = inhibition) at 1uM” value does the source give for `CCOC(=O)c1ccccc1NC(=O)CSc1nc2ccncc2[nH]1` here?
**A.** 14.5%

**Q.** Which “hERG current change (%, negative = inhibition) at 1uM” value does the source give for `O=C(/C=C1\NC2(CCCC2)Cc2ccccc21)C(=O)N/N=C/c1ccc(O)c(O)c1` here?
**A.** -0.965%

Source: publication PMC4336329 (PLoS ONE, 2015)
